Experimental data reported in PMC4705382.
Results are given in words; binding and its absence hold for the method and conditions named. Binding seen in cells or lysates may run through a third protein. Some entries that bind do so weakly or less than the wild type. Sequences can lack the tags named with a protein.

Biological target: T1, ^GFPTRAK2 (mouse) (UniProt Q6P9N8)
T1 sequence: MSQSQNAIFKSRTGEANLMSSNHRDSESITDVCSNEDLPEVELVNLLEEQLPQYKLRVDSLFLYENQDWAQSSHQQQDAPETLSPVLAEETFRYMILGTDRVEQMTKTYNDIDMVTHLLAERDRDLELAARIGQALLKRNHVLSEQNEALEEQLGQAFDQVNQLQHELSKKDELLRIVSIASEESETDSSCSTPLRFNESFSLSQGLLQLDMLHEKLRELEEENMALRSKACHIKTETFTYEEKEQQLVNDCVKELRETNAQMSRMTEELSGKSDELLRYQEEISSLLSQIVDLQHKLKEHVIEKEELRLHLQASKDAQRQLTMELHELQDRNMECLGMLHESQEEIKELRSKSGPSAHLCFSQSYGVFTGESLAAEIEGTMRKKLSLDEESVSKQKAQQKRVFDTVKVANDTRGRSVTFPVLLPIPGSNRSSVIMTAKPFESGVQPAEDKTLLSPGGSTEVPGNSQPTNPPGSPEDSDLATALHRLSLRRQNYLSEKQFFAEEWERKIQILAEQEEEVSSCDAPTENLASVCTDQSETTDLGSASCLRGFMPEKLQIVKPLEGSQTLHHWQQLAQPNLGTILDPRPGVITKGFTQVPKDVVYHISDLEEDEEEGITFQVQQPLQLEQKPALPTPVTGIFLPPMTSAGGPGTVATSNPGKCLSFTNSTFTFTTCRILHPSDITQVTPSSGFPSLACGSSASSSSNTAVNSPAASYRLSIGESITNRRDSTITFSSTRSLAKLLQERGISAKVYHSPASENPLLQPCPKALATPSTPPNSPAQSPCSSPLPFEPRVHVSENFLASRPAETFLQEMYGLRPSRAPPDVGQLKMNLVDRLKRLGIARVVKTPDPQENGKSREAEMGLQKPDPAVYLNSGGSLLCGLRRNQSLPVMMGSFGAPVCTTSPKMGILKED
Test: co-IP; GFP trap beads (Chromotek) on lysates of co-transfected COS7 cells; lysis buffer 50 mM HEPES pH 7.5, 0.5% Triton X-100, 150 mM NaCl, 1 mM EDTA; Western blot

binding: binds
B1: Untagged human DISC1 (protein, UniProt Q9NRI5 1-854)
chain: MPGGGPQGAPAAAGGGGVSHRAGSRDCLPPAACFRRRRLARRPGYMRSSTGPGIGFLSPAVGTLFRFPGGVSGEESHHSESRARQCGLDSRGLLVRSPVSKSAAAPTVTSVRGTSAHFGIQLRGGTRLPDRLSWPCGPGSAGWQQEFAAMDSSETLDASWEAACSDGARRVRAAGSLPSAELSSNSCSPGCGPEVPPTPPGSHSAFTSSFSFIRLSLGSAGERGEAEGCPPSREAESHCQSPQEMGAKAASLDGPHEDPRCLSRPFSLLATRVSADLAQAARNSSRPERDMHSLPDMDPGSSSSLDPSLAGCGGDGSSGSGDAHSWDTLLRKWEPVLRDCLLRNRRQMEVISLRLKLQKLQEDAVENDDYDKAETLQQRLEDLEQEKISLHFQLPSRQPALSSFLGHLAAQVQAALRRGATQQASGDDTHTPLRMEPRLLEPTAQDSLHVSITRRDWLLQEKQQLQKEIEALQARMFVLEAKDQQLRREIEEQEQQLQWQGCDLTPLVGQLSLGQLQEVSKALQDTLASAGQIPFHAEPPETIRSLQERIKSLNLSLKEITTKVCMSEKFCSTLRKKVNDIETQLPALLEAKMHAISGNHFWTAKDLTEEIRSLTSEREGLEGLLSKLLVLSSRNVKKLGSVKEDYNRLRREVEHQETAYETSVKENTMKYMETLKNKLCSCKCPLLGKVWEADLEACRLLIQSLQLQEARGSLSVEDERQMDDLEGAAPPIPPRLHSEDKRKTPLKVLEEWKTHLIPSLHCAGGEQKEESYILSAELGEKCEDIGKKLLYLEDQLHTAIHSHDEDLIQSLRRELQMVKETLQAMILQLQPAKEAGEREAAASCMTAGVHEAQA
